# Measured values published in paper PMC4336329 (PLoS ONE, 2015).
# The campaign covered roughly 310,000 compounds. About 2,200 (0.71%) showed an effect of 50% or more. Effects have a minus sign here. Some of the results follow.
# Target: human ether-à-go-go-related gene (hERG) potassium channel (human, UniProt Q12809)
# Experiment: primary screen, population patch clamp on CHO cells stably expressing hERG
# Sequence of human ether-à-go-go-related gene (hERG) potassium channel (Q12809 whole entry, looked up): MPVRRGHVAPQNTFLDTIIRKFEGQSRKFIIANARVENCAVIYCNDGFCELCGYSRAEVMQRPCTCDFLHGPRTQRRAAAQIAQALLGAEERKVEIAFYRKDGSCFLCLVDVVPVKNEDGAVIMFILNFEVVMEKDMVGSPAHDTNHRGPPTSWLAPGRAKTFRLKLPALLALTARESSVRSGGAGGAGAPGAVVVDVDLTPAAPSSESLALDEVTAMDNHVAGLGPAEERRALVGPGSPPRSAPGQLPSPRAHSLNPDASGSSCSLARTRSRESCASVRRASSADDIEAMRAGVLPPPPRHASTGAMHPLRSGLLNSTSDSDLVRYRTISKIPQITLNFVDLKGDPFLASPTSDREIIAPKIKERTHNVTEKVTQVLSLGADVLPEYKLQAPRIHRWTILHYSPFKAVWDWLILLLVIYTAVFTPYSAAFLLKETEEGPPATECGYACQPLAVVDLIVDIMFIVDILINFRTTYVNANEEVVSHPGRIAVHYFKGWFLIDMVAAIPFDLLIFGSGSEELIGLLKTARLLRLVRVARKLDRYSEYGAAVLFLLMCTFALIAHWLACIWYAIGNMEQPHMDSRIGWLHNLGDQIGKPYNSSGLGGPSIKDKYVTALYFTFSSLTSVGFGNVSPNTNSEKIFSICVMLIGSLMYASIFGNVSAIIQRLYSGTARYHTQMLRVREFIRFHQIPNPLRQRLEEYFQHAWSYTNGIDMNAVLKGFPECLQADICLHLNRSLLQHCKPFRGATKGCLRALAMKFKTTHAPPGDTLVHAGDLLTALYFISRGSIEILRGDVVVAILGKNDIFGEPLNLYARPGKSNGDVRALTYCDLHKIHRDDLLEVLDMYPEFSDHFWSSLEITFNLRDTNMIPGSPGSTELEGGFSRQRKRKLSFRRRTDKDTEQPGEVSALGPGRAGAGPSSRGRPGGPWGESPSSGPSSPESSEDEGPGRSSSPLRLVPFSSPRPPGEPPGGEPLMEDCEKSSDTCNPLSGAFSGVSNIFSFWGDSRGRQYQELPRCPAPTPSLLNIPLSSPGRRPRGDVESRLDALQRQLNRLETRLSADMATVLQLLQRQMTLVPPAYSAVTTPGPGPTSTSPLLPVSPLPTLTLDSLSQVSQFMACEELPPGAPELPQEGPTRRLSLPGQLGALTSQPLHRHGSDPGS
row,SMILES,"hERG current change (%, negative = inhibition) at 1uM"
1,Cc1c(NC(=O)COc2c(F)c(F)c(F)c(F)c2F)c(=O)n(-c2ccccc2)n1C,11.6%
2,Cc1snc(SCC(=O)N/N=C(\N)COc2ccc(F)cc2)c1C#N,11.6%
3,COc1ccccc1Cn1c(/C=C/c2ccccc2)nc2ccccc21,13.6%
4,CCOC(=O)N1CCC(NC(=O)c2ccc(N3CCC4(CC3)OCCO4)c([N+](=O)[O-])c2)CC1,7.07%
5,Cl.OC(CCCN1CCCCC1)(c1ccccc1)c1ccccc1,-5.59%
6,CCn1c(=S)sc2c(=O)n(CC(=O)Nc3ccccc3C(F)(F)F)c(C)nc21,5.14%
7,O=C(CSc1nncs1)Nc1ccc(Cl)cn1,0.856%
8,CCn1c(SCC(=O)N2CCCc3ccccc32)nc2c(c1=O)SC(C)C2 (centres unmarked),10.3%
9,CC1C(=O)N2CCCc3cc(NC(=O)C(=O)NCc4cccnc4)cc1c32 (centres unmarked),13%
10,COc1ccc(S(=O)(=O)N(C)CC(=O)NCc2cccnc2)cc1C,8.52%
11,COc1ccc(CCN(C)C(=O)c2cc(S(=O)(=O)N3CCCCC3)ccc2Cl)cc1OC,15.5%
12,CC(C)NC(=O)c1ccccc1NC(=O)Cc1ccc(Br)cc1,13.4%
13,CCC(C)(C)n1nnnc1C(c1ccc2ncccc2c1)N1CCN(c2nc3ccccc3s2)CC1 (centres unmarked),5.49%
14,O=C(CN1C(=O)NC2(CCc3ccccc32)C1=O)c1ccccc1 (centres unmarked),10.6%
15,Cl.c1ccc2c(c1)NCCS2,9.17%
16,COc1c(O)cnn(-c2ccccc2)c1=O,15.6%
17,O=C(CSc1nn(-c2ccc(Cl)cc2)c(=S)s1)NCC1CCCO1 (centres unmarked),10.9%
18,CC(C)c1nnc(NC(=O)c2cc3ccccc3o2)s1,10.5%
19,COc1cc(CSc2ncn[nH]2)c(OC)cc1CSc1ncn[nH]1,-0.272%
20,Cc1cc(Cl)ccc1NC(=O)CSc1nnc(-c2ccncc2)n1Cc1ccco1,-26.9%
21,O=C(CS(=O)c1cccc(C(F)(F)F)c1)Nc1ccccc1Cl (centres unmarked),5.29%
22,COc1ccc(/C=N/n2c(=S)n(C)c3ccccc32)cc1OC,1.58%
23,CC(C)=CCN1CCN(Cc2cc(C(C)C)n[nH]2)CC1CCO (centres unmarked),14.5%

row,SMILES,"hERG current change (%, negative = inhibition) at 1uM"
1,O=C(Nc1cc(-c2nc3ncccc3o2)ccc1Cl)c1ccco1,10.3%
2,CCOc1ccc2nc(SCC(=O)Nc3cc(C)on3)c(C)cc2c1,11.6%
3,O=C(N/N=C/c1c[nH]c2ccccc12)c1ccn[nH]1,-1.43%
4,Cc1nnc(Sc2c(N)n(C)c(=O)n(C)c2=O)s1,10.3%
5,Cc1cc(C(=O)Nc2cccc(/C=C/C(=O)O)c2)c(C)o1,-8.98%
6,O=C(OCn1nnc2ccccc2c1=O)c1cc(-c2ccccc2Cl)nc2ccccc12,9.69%
7,CC(C)CCCN1CCN=C1Nc1ccccc1,7.85%
8,Clc1cccc(Cl)c1CON/C=N/c1ncnc2sccc12,-1.9%
9,COc1ccc(C(=O)Nc2ccc(C)c(S(=O)(=O)N3CCCCCC3)c2)cc1,10.6%
10,COc1ccc(-c2ccc3oc(-c4ccc(OC)cc4)c(-c4cc(OC)c(OC)c(OC)c4)c3c2)cc1,7.27%
11,CC(C)(C)OC(=O)N1CCC(NC(=O)c2nc[nH]c2C(=O)N2CCN(C(=O)OC(C)(C)C)CC2)CC1,6.59%
12,Cl.NCC(O)c1cc(O)c(O)cc1F (centres unmarked),5.92%
13,Cn1c(SCC(=O)c2ccc3c(c2)Cc2ccccc2-3)nnc1-c1ccccc1,14.1%
14,CC(=O)N1Cc2ccccc2CC1C(=O)O (centres unmarked),6.94%
15,COc1ccc(Br)cc1S(=O)(=O)N1CCN=C1C,5.76%
16,COc1cc(C(=O)NCc2nnc(SCC(=O)NC3CCCC3)o2)cc(OC)c1OC,12.2%
17,Cc1occc1-c1nnc(SCC(=O)Nc2ccccc2)n1C,11.8%
18,COc1ccc(C(=O)Nc2nnc(SCC(=O)NC3CC3)s2)cc1,10.3%
19,COc1ccc(C(=O)NC2(C(F)(F)F)NC(=O)N(CCCc3ccccc3)C2=O)cc1OC (centres unmarked),12.8%
20,CSc1nsc(SCC(=O)N2CCCc3ccccc32)n1,8.05%
21,COc1ccc(S(=O)(=O)N2CCCC2)c(Cl)c1Cl,7.91%
22,CCOC(=O)C/C(C)=N/NC(=O)Nc1ccccc1,11.9%
23,O=C(Cn1cnc2ccccc2c1=O)c1ccccc1,8.89%

row,SMILES,"hERG current change (%, negative = inhibition) at 1uM"
1,O=C(Cc1cccc2ccccc12)N/N=C/c1ccc(Sc2cccc3cccnc23)o1,9.69%
2,O=C(CSc1nnc(-c2ccco2)o1)N1CCCCC1,15.6%
3,C[C@H](NC(=O)[C@@H]1Cc2ccccc2CN1)C(=O)NC1CCCCC1,17.8%
4,CC(C)CCNC(=S)Nc1ccc2nc3n(c(=O)c2c1)CCCCC3,-1.3%
5,Cc1ccc(C(=O)C[n+]2cc(Br)cc(Br)c2)cc1.[Br-],8.99%
6,CCN(CC)S(=O)(=O)c1ccc(N2CCOCC2)c(NS(=O)(=O)c2ccc(C)cc2)c1,8.83%
7,COCCN(C(=O)CSc1nnc(-c2cccc(OC)c2)n1C)c1c(N)n(Cc2ccccc2)c(=O)[nH]c1=O,12.2%
8,CC(Oc1cc2oc(=O)c3c(c2cc1Cl)CCC3)C(=O)NCc1cccnc1 (centres unmarked),5.33%
9,COc1ccc(NS(=O)(=O)c2ccc(C)c(NC(=O)NC3CCCCC3)c2)cc1,-8.31%
10,CCN(CC(=O)Nc1ccc(NC(C)=O)cc1)C(=O)C12CC3CC(CC(Cl)(C3)C1)C2,-4.61%
11,O=S(=O)(NCC(c1ccco1)N1CCOCC1)c1ccc(Cl)cc1 (centres unmarked),3.72%
12,CC(OCC(O)CNCC1COc2ccccc2O1)c1ccc(Cl)cc1 (centres unmarked),11.3%
13,CCOC(=O)C1CCN(C(=O)c2ccc(Oc3cc(Cl)cc(Cl)c3)o2)CC1,7.39%
14,CCC(C)N1CC(O)=C(c2nc3ccccc3[nH]2)C1=N (centres unmarked),3.5%
15,CCOc1ccc(Cl)cc1CNc1nnnn1C,16.1%
16,COc1ccc(CN2C(=O)C(C)=C(C)C2OC)cc1 (centres unmarked),12.1%
17,COc1ccc(C(=O)CSc2nnc(CN3CCCCC3)n2-c2ccc(Cl)cc2)cc1OC,-1.14%
18,O=C(O)C12CC3CC(C1)CC(n1cnc(Cl)n1)(C3)C2,15.9%
19,CN(C(=O)COC(=O)c1cc(S(=O)(=O)N2CCOCC2)c(Cl)cc1Cl)C1CCS(=O)(=O)C1 (centres unmarked),6.13%
20,CS(=O)(=O)c1ccccc1-c1nnc(NC(=O)Cc2ccccc2)o1,16.4%
21,CCOc1cc(C(=O)Nc2ccccc2N2CCOCC2)ccc1OCC(=O)N1CCOCC1,14%
22,Cc1nn(C)c(C)c1CN(C)C(=O)CCCC(=O)O,1.91%
23,Cc1cccc(NC(=O)[C@H](C)NC(=O)[C@@H]2Cc3ccccc3CN2C(=O)OC(C)(C)C)c1,9.24%

row,SMILES,"hERG current change (%, negative = inhibition) at 1uM"
1,Cc1ccc(S(=O)(=O)NCCN=C(CN2CCCC2)NS(=O)(=O)c2ccc(C)cc2)cc1,-2.49%
2,O=C(CSc1nnnn1Cc1ccccc1)c1ccc(F)cc1,-2.96%
3,Cc1ccc2nc(-c3ccc(N4C(=O)CC(N5CCC(C(N)=O)CC5)C4=O)cc3)sc2c1 (centres unmarked),16.7%
4,COc1cc(/C=N\NC(=O)c2ccc(Cl)cc2)ccc1Oc1ccc([N+](=O)[O-])cn1,-1.96%
5,CCCCNC(=O)COC(=O)c1cc(Br)ccc1Cl,8.6%
6,Cc1cccc(COc2ccc(/C(O)=C3\C(=O)C(=O)N(CCN(C)C)C3c3ccncc3)cc2)c1 (centres unmarked),14.1%
7,COc1ccc(NC(=O)Cc2nnc(SCC(=O)NC3CCCC3)n2C)cc1,9.4%
8,COc1ccc(OC)c(-c2cc(C3CCN(C(=O)OC(C)(C)C)CC3)[nH]n2)c1,10.5%
9,CCOc1cc(CNCc2ccccn2)ccc1OCC(=O)NC1CCCCC1.Cl,6.57%
10,Cc1cc(C(F)(F)F)nn1Cc1ccc(C(=O)NCc2ccco2)o1,21.6%
11,COc1ccccc1-c1c(-c2ccc(O)cc2O)n[nH]c1C(F)(F)F,7.7%
12,Cc1ccc(NCc2ccco2)cc1C.O=C(O)C(=O)O,5.96%
13,CCOC(=O)c1ccc(NC(=O)c2ccc[n+]([O-])c2)cc1,7.24%
14,CC/C(=N/OC(=O)c1cccc(C)c1)C(=O)c1cccs1,4.99%
15,O=C(CN1C(=O)c2ccccc2C1=O)N1CCN(c2ccccn2)CC1,13.3%
16,CCC(=O)Nc1ccc(S(=O)(=O)Nc2cccc(C)c2)cc1OC,6.57%
17,Cc1ccc(C(=O)NNC(=O)c2ccncc2)cc1C,14%
18,CC(=O)c1cc(C(=O)Nc2ccccc2C(=O)O)oc1C,4.13%
19,COC(=O)c1ccc(N2C(=O)C3CC=CC(C)C3C2=O)cc1 (centres unmarked),15.2%
20,CC(=O)c1ccc(NC(=O)c2c(C)nn(-c3ccccc3)c2Cl)cc1,13%
